The subject of this test is BDF1 mice, colon carcinoma 38 sc, T/C %. Put plainly: NCI In Vivo Anticancer Drug Screen. Data for tumor model Colon Carcinoma 38 (subcutaneous) in B6D2F1 (BDF1) mice. The note with it: endpoint: median tumor weight (est.), higher = larger tumour. The method, boiled down:
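Ratio of survival or tumor size, compound-treated animals relative to vehicle controls, in tumor-bearing mice.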

The mark [1] stands for this setting: dose: 25.0 mg/kg/injection, schedule: Q07DX002 (ip), vehicle: saline.
Setting [2] is: dose: 100.0 mg/kg/injection, schedule: Q07DX002 (ip), vehicle: saline.
Where [3] appears, read: dose: 50.0 mg/kg/injection, schedule: Q07DX002 (ip), vehicle: saline with Tween-80.
Where [4] appears, read: dose: 12.5 mg/kg/injection, schedule: Q07DX002 (ip), vehicle: saline.
Setting [5] is: dose: 50.0 mg/kg/injection, schedule: Q07DX002 (ip), vehicle: saline.
Setting [6] is: dose: 100.0 mg/kg/injection, schedule: Q07DX002 (ip), vehicle: saline with Tween-80.
[7] abbreviates: dose: 8.0 mg/kg/injection, schedule: Q07DX002 (ip), vehicle: saline with Tween-80.
Where [8] appears, read: dose: 16.0 mg/kg/injection, schedule: Q07DX002 (ip), vehicle: saline with Tween-80.
Where [9] appears, read: dose: 12.5 mg/kg/injection, schedule: Q07DX002 (ip), vehicle: saline with Tween-80.
The mark [10] stands for this setting: dose: 25.0 mg/kg/injection, schedule: Q07DX002 (ip), vehicle: saline with Tween-80.

Results filed as inconclusive are left out. Not every entry of the source has a single result; some have several. The other results are left out here. An entry can have further records. The values listed for one entry are repeated measurements (runs, samples, wells, individuals or studies).

Consider `CCC1(O)CC2CN(CCc3c([nH]c4ccccc34)C(C(=O)OC)(c3cc4c(cc3OC)N(C)C3C(O)(C(N)=O)C(O)C5(CC)C=CCN6CCC43C65)C2)C1` (configuration not stated) (tested in a mixture with another compound), for which the T/C (dose: 0.25 mg/kg/injection, schedule: Q07DX002 (ip), vehicle: water) is 91 % of control and 121 % of control; the T/C (dose: 1.0 mg/kg/injection, schedule: Q07DX002 (ip), vehicle: water) was 52 % of control and 100 % of control.

Take `Cc1nnc2ncccn12`: the T/C under setting [1] is 90 % of control and 116 % of control; the T/C under setting [2] was 89 % of control and 120 % of control.

On to `C1OC1CO[C@@H]1CO[C@H]2[C@@H]1OC[C@H]2OCC1CO1` (some centres not stated), for which the T/C is, setting by setting: (dose: 100.0 mg/kg/injection, schedule: Q07DX003 (ip), vehicle: saline) 80 % of control and 119 % of control; (dose: 400.0 mg/kg/injection, schedule: Q07DX003 (ip), vehicle: saline) 38 % of control and 74 % of control.

As to `CCCN1COC(OCC)C(C)(C)C1` (configuration not stated), the T/C under setting [3] was 52 % of control and 85 % of control.

As for `Cc1c(N)nc(C(CC(N)=O)NCC(N)C(N)=O)nc1C(=O)NC(C(=O)NC(C)C(O)C(C)C(=O)NC(C(=O)NCCc1nc(-c2nc(C(=O)NCCCNCCCc3ccccn3)cs2)cs1)C(C)O)C(OC1OC(CO)C(O)C(O)C1OC1OC(CO)C(O)C(OC(N)=O)C1O)c1cnc[nH]1` (configuration not stated), the T/C under setting [4] was 44 % of control and 77 % of control; the T/C under setting [5] was 30 % of control and 62 % of control.

For the compound `Clc1cc(Cl)c(C[N+]23CN4CN(CN(C4)C2)C3)cc1Cl`, the T/C by setting is: under setting [6], 56 % of control and 121 % of control; (dose: 200.0 mg/kg/injection, schedule: Q07DX002 (ip), vehicle: saline with Tween-80) 70 % of control and 106 % of control.

For `CC(=O)OCC1C(=O)OCC1C(=O)N1Cc2cc3ccccc3nc2C1` (configuration not stated), the T/C is, setting by setting: under setting [7], 30 % of control and 168 % of control; under setting [8], 77 % of control and 122 % of control; (dose: 32.0 mg/kg/injection, schedule: Q07DX002 (ip), vehicle: saline with Tween-80) 64 % of control and 178 % of control.

Consider `NNC(=O)c1ccncc1`, for which the T/C (dose: 18.5 mg/kg/injection, schedule: Q07DX002 (ip), vehicle: saline) was 52 % of control and 118 % of control.

For `OCC1OC(n2cnc3c(Cl)ncnc32)C(O)C1O` (configuration not stated), the T/C runs as follows: under setting [4], 102 % of control and 150 % of control; under setting [1], 33 % of control and 153 % of control; under setting [5], 33 % of control and 150 % of control; (dose: 400.0 mg/kg/injection, schedule: Q07DX002 (ip), vehicle: saline) 58 % of control, 170 % of control, 214 % of control.

Take `O=C1c2c(O)ccc(O)c2C(=O)c2c(NCCNCCO)ccc(NCCNCCO)c21`: the T/C is 97 % of control and 160 % of control (dose: 1.5 mg/kg/injection, schedule: Q07DX003 (ip), vehicle: saline with Tween-80); 55 % of control and 86 % of control (dose: 1.5 mg/kg/injection, schedule: Q07DX003 (iv), vehicle: acid diluted with saline); 28 % of control, 40 % of control, 117 % of control (dose: 6.0 mg/kg/injection, schedule: Q07DX003 (ip), vehicle: saline with Tween-80).

Turning to `CC[C@]1(O)C[C@H]2CN(CCc3c([nH]c4ccccc34)[C@@](C(=O)OC)(c3cc4c(cc3OC)N(C=O)[C@H]3[C@@](O)(C(=O)OC)[C@H](OC(C)=O)[C@]5(CC)C=CCN6CC[C@]43[C@@H]65)C2)C1`, the T/C reads like this: (dose: 0.25 mg/kg/injection, schedule: Q07DX002 (ip), vehicle: saline) 65 % of control, 102 % of control, 103 % of control; (dose: 0.5 mg/kg/injection, schedule: Q07DX002 (ip), vehicle: saline) 37 % of control and 77 % of control; (dose: 2.0 mg/kg/injection, schedule: Q07DX002 (ip), vehicle: saline) 49 % of control and 93 % of control.

Turning to `CCCCCCCC(=O)[O][Hg][CH2]C1COC([CH2][Hg][O]C(=O)CCCCCCC)CO1` (configuration not stated), the T/C is, setting by setting: under setting [9], 75 % of control and 121 % of control; under setting [3], 73 % of control and 110 % of control.

With `O=NN(CCCl)C(=O)NCCCl`, the T/C by setting is: (dose: 2.0 mg/kg/injection, schedule: Q07DX002 (ip), vehicle: saline with Tween-80) 56 % of control and 83 % of control; (dose: 2.0 mg/kg/injection, schedule: Q07DX003 (ip), vehicle: saline with Tween-80) 73 % of control and 119 % of control; under setting [7], 54 % of control and 80 % of control; under setting [8], 24 % of control and 73 % of control; (dose: 16.0 mg/kg/injection, schedule: Q07DX003 (ip), vehicle: saline with Tween-80) 56 % of control and 83 % of control.

With `S=C=NCCc1ccccc1`, the T/C runs as follows: (dose: 6.25 mg/kg/injection, schedule: Q07DX002 (ip), vehicle: saline with Tween-80) 71 % of control and 114 % of control; under setting [9], 61 % of control and 90 % of control; under setting [10], 78 % of control and 113 % of control; under setting [3], 37 % of control and 68 % of control.

Take `O=C1OCC2(C(=O)O)C(=O)OCC12` (configuration not stated): the T/C under setting [9] is 31 % of control and 70 % of control.

Regarding `Cc1cc(N2C(=O)CCSC2=S)ccc1Cl`, the T/C (dose: 12.5 mg/kg/injection, schedule: Q07DX002 (ip), vehicle: Klucel (hydroxypropylcellulose) (HPC)) is 83 % of control and 177 % of control; the T/C (dose: 25.0 mg/kg/injection, schedule: Q07DX002 (ip), vehicle: Klucel (hydroxypropylcellulose) (HPC)) was 70 % of control and 107 % of control; the T/C (dose: 50.0 mg/kg/injection, schedule: Q07DX002 (ip), vehicle: Klucel (hydroxypropylcellulose) (HPC)) is reported as 84 % of control, 91 % of control, 197 % of control; the T/C (dose: 100.0 mg/kg/injection, schedule: Q07DX002 (ip), vehicle: Klucel (hydroxypropylcellulose) (HPC)) was 33 % of control and 195 % of control; the T/C (dose: 200.0 mg/kg/injection, schedule: Q07DX002 (ip), vehicle: Klucel (hydroxypropylcellulose) (HPC)) is 43 % of control, 107 % of control, 239 % of control.

Take `C/C=C/c1cc2n(c1)C(=O)c1cc(OC3OC(C)C(NC)C(C)(O)C3O)c(C)c(O)c1NC2O` (configuration not stated): the T/C was 60 % of control and 100 % of control (dose: 4.0 micrograms/kg/injection, schedule: Q07DX002 (ip), vehicle: saline); 88 % of control and 118 % of control (dose: 8.0 micrograms/kg/injection, schedule: Q07DX002 (ip), vehicle: saline); 73 % of control and 102 % of control (dose: 16.0 micrograms/kg/injection, schedule: Q07DX002 (ip), vehicle: saline).

Consider `O=C1C(NCC(O)CO)=C(N2CC2)C(=O)C(NCC(O)CO)=C1N1CC1` (configuration not stated), for which the T/C (dose: 1.0 mg/kg/injection, schedule: Q07DX002 (ip), vehicle: saline) is 105 % of control and 158 % of control.

Consider `CC1(C)N=C(N)N=C(N)N1c1ccc(CCCCc2ccc(S(=O)(=O)F)cc2Cl)c(Cl)c1`, for which the T/C is, setting by setting: under setting [4], 62 % of control, 80 % of control, 157 % of control; under setting [1], 62 % of control, 80 % of control, 188 % of control; under setting [2], 42 % of control, 51 % of control, 72 % of control.

As for `Cc1c2ccc3ccccc3c2c[n+]2ccccc12`, the T/C was 58 % of control and 98 % of control (dose: 2.5 mg/kg/injection, schedule: Q07DX002 (ip), vehicle: Klucel (hydroxypropylcellulose) (HPC)); 66 % of control and 94 % of control (dose: 20.0 mg/kg/injection, schedule: Q07DX002 (ip), vehicle: Klucel (hydroxypropylcellulose) (HPC)).

As to `CC12CCC3C(CCC4CC(OC(=O)Cc5ccc(N(CCCl)CCCl)cc5)CCC43C)C1CCC(=O)N2` (configuration not stated), the T/C (dose: 12.0 mg/kg/injection, schedule: Q07DX002 (ip), vehicle: saline with Tween-80) was 39 % of control and 79 % of control.

With `Cc1cc(N(CC(C)Br)CC(C)Br)ccc1N=Nc1ccccc1C(=O)O` (configuration not stated), the T/C by setting is: (dose: 3.12 mg/kg/injection, schedule: Q07DX002 (ip), vehicle: saline with Tween-80) 88 % of control and 118 % of control; under setting [3], 54 % of control and 95 % of control.

Turning to `CO[C@@H]1[C@H](O)CC[C@]2(CO2)[C@H]1[C@@]1(C)O[C@@H]1CC=C(C)C`, the T/C was 39 % of control, 84 % of control, 85 % of control under setting [9]; 42 % of control, 68 % of control, 71 % of control under setting [10]; 27 % of control and 84 % of control under setting [6].

Values taken from PubChem BioAssay AID212 (DTP/NCI, 2004).
